Values of other authors as cited in patent US8691290B2 (priority 2006, dated 2014).

Tested on: S. aureus
Details: in vivo

C/C(=C\C(=O)OCCCCCCCCC(=O)O)C[C@@H]1OC[C@H](C[C@@H]2O[C@H]2[C@@H](C)[C@H](C)O)[C@@H](O)[C@H]1O [mupirocin]
reduction of the rate of nosocomial S. aureus infection: 50%
